From PMC6451091 come the findings set out here.

Common to all, as to settings: 20 mM HEPES pH 7.9, 100 mM NaCl, 1 mM DTT, 0.2 mg/mL BSA, 0.02% Triton X-100, 2% milk, 0.4 mg/mL salmon testes DNA; 1 h; temperature not stated; high values mean tight binding; double strand, one strand shown; sequences stand for … in GCCTAGCAC…GTGCTAGGTCTTGATTCGCTTGACGCTGCTG
The target of one assay is PU.1 (IVT) (UniProt P17947). The assay is described as follows: protein-binding microarray (PBM).
Assay [1] has as its target PU.1 (endogenous, THP-1 nuclear extract) (UniProt P17947). In words: nuclear extract protein-binding microarray (nextPBM).
Assay [2] concerns the target T1, FLI1 (endogenous, THP-1 nuclear extract) (UniProt Q01543).
T1 sequence: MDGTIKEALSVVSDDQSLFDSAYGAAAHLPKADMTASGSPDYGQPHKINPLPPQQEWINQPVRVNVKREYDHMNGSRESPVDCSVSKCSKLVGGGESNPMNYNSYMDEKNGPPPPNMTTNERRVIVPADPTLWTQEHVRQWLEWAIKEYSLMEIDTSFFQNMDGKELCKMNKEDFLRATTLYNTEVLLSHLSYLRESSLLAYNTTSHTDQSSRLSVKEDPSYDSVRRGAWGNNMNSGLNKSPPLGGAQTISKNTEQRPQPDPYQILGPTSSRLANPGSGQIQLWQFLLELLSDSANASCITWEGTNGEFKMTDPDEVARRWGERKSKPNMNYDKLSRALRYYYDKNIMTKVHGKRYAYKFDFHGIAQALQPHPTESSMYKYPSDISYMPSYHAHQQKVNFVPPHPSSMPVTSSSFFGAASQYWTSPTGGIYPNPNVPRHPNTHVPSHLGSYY
The assay is described as above.

In assay [3] the test system is PU.1 (endogenous, THP-1 nuclear extract) + IRF8 (endogenous, THP-1 nuclear extract). Described as above.

This is one part of the list. For some assays here: At the low end of the ranking the order means little. For some assays here: The protein was read in a cell extract, so binding may be indirect.

Take CTTGGCATCCGAAACATTAA: the binding signal with PU.1 (IVT) is 0.542 z-score; in assay [1], -0.335 z-score; in assay [2] it was 0.98 z-score; in assay [3], -0.957 z-score.
On the same counts, the results for TGGCAGCCAAAGTGATCCTT are -0.135 z-score, -0.32 z-score, -0.562 z-score and -0.0943 z-score.
On the same counts, the results for TTTTATTTTACAATTAAAAC are -0.18 z-score, -0.689 z-score, -0.291 z-score and -0.175 z-score.
Consider ATAGTGCTTTCACACTGTGT, for which the binding signal with PU.1 (IVT) was -0.163 z-score; in assay [1] it was -0.196 z-score; in assay [2], -0.48 z-score; in assay [3], 1.88 z-score.
Turning to ATTACCAATCGGTTCAGATG, the binding signal was -0.483 z-score in the assay with PU.1 (IVT), -0.423 z-score in assay [1], -0.483 z-score in assay [2] and 0.826 z-score in assay [3].
Take CATCTTCTCAAATGTTGCAA: the binding signal in the assay with PU.1 (IVT) was 0.442 z-score; in assay [1] it was -0.271 z-score; in assay [2], -0.553 z-score; in assay [3], -1.53 z-score.
Turning to CGCAGATCCAGCGCCCAGAG, the binding signal with PU.1 (IVT) is -0.173 z-score; in assay [1] it was -0.314 z-score; in assay [2], -0.463 z-score; in assay [3] it was 0.0452 z-score.
In the case of AAGGGGAAGTGGGAAGAAAC, the binding signal with PU.1 (IVT) came out at 3.92 z-score; in assay [1] it was 4.09 z-score; in assay [2], 2.01 z-score; in assay [3] it was 0.199 z-score.
As for GAAAGGACTGCGTGAAACTG, the binding signal with PU.1 (IVT) is -0.533 z-score; in assay [1], -0.788 z-score; in assay [2] it was 0.178 z-score; in assay [3], 3.59 z-score.
As for AAGGGAAGATGTTTTGTAAT, the binding signal with PU.1 (IVT) is 0.314 z-score; in assay [1], 0.416 z-score; in assay [2] it was 0.248 z-score; in assay [3] it was -0.288 z-score.
For TCAACCTGCAGTTCTGGAGG, the binding signal with PU.1 (IVT) was -0.572 z-score; in assay [1], -0.382 z-score; in assay [2], -0.556 z-score; in assay [3], -0.236 z-score.
Turning to CTGGAGGATCCTTCTGCGCA, the binding signal in the assay with PU.1 (IVT) is 0.458 z-score; in assay [1], 0.336 z-score; in assay [2], -0.424 z-score; in assay [3] it was 0.342 z-score.
In the case of TGTATTTTTTACGGGGTTGA, the binding signal with PU.1 (IVT) was -0.0847 z-score; in assay [1], -0.193 z-score; in assay [2] it was -0.513 z-score; in assay [3] it was -1.81 z-score.
In the case of GCTGTGCCTATTCTCATCTG, the binding signal in the assay with PU.1 (IVT) is -0.455 z-score; in assay [1], -0.3 z-score; in assay [2], -0.321 z-score; in assay [3], 0.2 z-score.
Turning to ATGCTATGGATTCTTTAACC, the binding signal with PU.1 (IVT) was -0.284 z-score; in assay [1], -0.484 z-score; in assay [2] it was -0.399 z-score; in assay [3], 1.17 z-score.
Consider CCAAACACTGCCTGAAAGTC, for which the binding signal was -0.33 z-score in the assay with PU.1 (IVT), -0.291 z-score in assay [1], 0.0963 z-score in assay [2] and 0.154 z-score in assay [3].
Consider AAATGCTTTCCCCCAAATTA, for which the binding signal was -0.241 z-score with PU.1 (IVT), -0.353 z-score in assay [1], -0.098 z-score in assay [2] and -0.785 z-score in assay [3].
For TGCAGGGCTCCCTCACAGTA, the binding signal is -0.415 z-score in the assay with PU.1 (IVT), -0.113 z-score in assay [1], -0.782 z-score in assay [2] and 0.469 z-score in assay [3].
As to TTTTTAACAAGAAGTTCTTG, the binding signal in the assay with PU.1 (IVT) is 0.636 z-score; in assay [1] it was 0.588 z-score; in assay [2], -0.136 z-score; in assay [3] it was -2.08 z-score.
For TATTTTTTGTGGTTTCCAAA, the binding signal in the assay with PU.1 (IVT) was 0.0777 z-score; in assay [1], -0.636 z-score; in assay [2], -0.104 z-score; in assay [3], -0.236 z-score.
As for TTCCCCGCAGGCCGGGCCGA, the binding signal in the assay with PU.1 (IVT) stood at 2.37 z-score; in assay [1] it was 2.46 z-score; in assay [2] it was 1.52 z-score; in assay [3], 1.47 z-score.
Turning to CTGTGACTCAGCACTGAGTT, the binding signal with PU.1 (IVT) is -0.323 z-score; in assay [1], -0.616 z-score; in assay [2] it was -0.364 z-score; in assay [3], 1.47 z-score.
For the sequence GGTGGCAGCAGACAGCTGGG, the binding signal was -0.378 z-score with PU.1 (IVT), -0.158 z-score in assay [1], -0.208 z-score in assay [2] and 0.408 z-score in assay [3].
On to CCACGGCCTACACTGCCCCC, for which the binding signal was 0.555 z-score with PU.1 (IVT), -0.365 z-score in assay [1], -0.68 z-score in assay [2] and 2.74 z-score in assay [3].
For the sequence CTGTATTTTCTTAGCTACTA, the binding signal with PU.1 (IVT) was -0.159 z-score; in assay [1] it was -0.406 z-score; in assay [2], -0.3 z-score; in assay [3] it was -0.171 z-score.
As to CCCCTGCCCGCTTTCTGGAG, the binding signal with PU.1 (IVT) is -0.079 z-score; in assay [1], -0.134 z-score; in assay [2], 0.23 z-score; in assay [3], -0.407 z-score.
